According to PubChem BioAssay AID686970 (National Center for Advancing Translational Sciences (NCATS), 2013):
Among all 360,000 compounds or so, about 6,000 (1.7%) were called active. The inconclusive results got no clear call from the source; some entries with a clear call stand among them for comparison. Calls follow the shape of the dose curve; as a rule, active = well fitted cell-killing curve with a large enough effect; inconclusive = small, poorly fitted or top-dose-only effect, or effect the other way; inactive = flat fitted curve, though single readings scatter. Potencies of inconclusive entries are left out as doubtful fits.

Experiment: qHTS for induction of synthetic lethality in tumor cells producing 2HG: qHTS for the HT-1080-NT fibrosarcoma cell line;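 also: NT is the 2HG producing partner of a matched IDH1 knockdown line; nearly all actives have a fitted effect of over 55% in size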;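 as to activity, negative = less viability: 0% = DMSO-treated cells and -100% = media-only wells without cells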
Conditions: HT-1080-NT fibrosarcoma viability, CellTiter-Glo ATP luminescence, 48 h; activity, negative = less viability: at 46.1 µM (top of the series) unless noted
Method in brief: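 Luminescent CellTiter-Glo readout after 48 hours of compound exposure at 37 degrees C defined viability of HT-1080-NT cells. Activity was normalized to DMSO wells and cell-free media wells; concentration-response curves were fitted and assigned curve classes.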
Potency is read from the fitted curve at half-maximal effect; tags tell the direction and shape of the fitted curve.

| SMILES | Potency | activity, negative = less viability |
| --- | --- | --- |
| CCN(CC)c1ccc(NC(=O)c2ccc(Cl)nc2)cc1 | inconclusive [cytotoxic, partial curve] | – |
| Cc1ccc(S(=O)(=O)NCc2cccnc2)cc1C(=O)NC1CCCCC1 | inactive | – |
| COc1ccc(Nc2nc(N)c3ccccc3n2)c(OC)c1 | inactive | – |
| O=C(Nc1ccc2nc(-c3cccnc3)[nH]c2c1)C12CC3CC(CC(C3)C1)C2 | active: 12.6 µM | – |
| O=C(Nc1ccccc1Cl)c1cc(C2CCCN(S(=O)(=O)c3cccs3)C2)on1 (stereo not drawn) | inconclusive [rising, single point] | – |
| NC(=O)/C(N=Nc1ccccc1)=N/Nc1ccccc1 | inactive | – |
| C=C1CC2(OC1=O)c1ccccc1CCc1ccccc12 | inconclusive [cytotoxic, single point] | – |
| COc1ccc(OC)c(C2c3c(oc4ccccc4c3=O)C(=O)N2CCCN(C)C)c1 (stereo not drawn) | inconclusive [rising, partial curve] | – |
| COc1ccc(CCNC(=O)C2(C)CCC(=O)N2Cc2ccc(C)cc2)cc1OC (stereo not drawn) | inactive | – |
| O=C(NC1C=CS(=O)(=O)C1)c1sc2ccccc2c1Cl (stereo not drawn) | active: 15.8 µM | – |
| Cc1ccc(C(=O)O/N=C(\N)c2ccccn2)c(Cl)c1 | active: 16.4 µM | – |
| CN1CCc2c(n(CC(O)CNCc3ccccc3)c3ccccc23)C1=O (stereo not drawn) | inconclusive [cytotoxic, single point] | – |
| O=[N+]([O-])c1c(Nc2cccc(O)c2)cc(Cl)c2nonc12 | active: 5.17 µM | – |
| COc1ccccc1Oc1ccc(N/C=C/C(=O)c2ccco2)cc1 | inactive | – |
| Cc1nn(Cc2ccc(Cl)cc2)c(Cl)c1/C=N/NC(=O)c1cccnc1 | inconclusive [cytotoxic, partial curve] | – |
| COCCNC(=O)CSc1nc2nc(C)cc(C)n2n1 | inactive | – |
| COC(=O)c1cc(S(=O)(=O)N(Cc2ccccc2)C(C)(C)C)c[nH]1 | inconclusive [cytotoxic, single point] | – |
| CCc1c(C2(O)CCCCC2)[nH]c2cc(C(F)(F)F)ccc12 | inconclusive [cytotoxic, single point] | – |
| COc1cc(CNc2ncnc3c2ncn3[C@H]2CN(CCN3CCOCC3)C[C@@H](CO)O2)cc(OC)c1OC | inactive | – |
| Cc1ccc2nc(-c3ccccc3)cc(C(=O)N3CCc4ccccc4C3)c2c1 | inactive | – |
| C=CCc1c(C)nc(C)nc1N/N=C/c1ccc(N(C)C)cc1 | inactive | – |
| Cc1ccc(N=N/C(=C\O)C(=O)c2ccncc2)cc1 | active: 25.9 µM | – |
| CC(NC(=O)Nc1nnc(C(F)(F)F)s1)(C(F)(F)F)C(F)(F)F | active: 7.31 µM | – |
| Cc1ccc(NC(=S)NC(=O)c2ccc(F)cc2)cc1S(=O)(=O)Nc1cccc(Cl)c1 | active: 6.51 µM | – |

| SMILES | Potency | activity, negative = less viability |
| --- | --- | --- |
| CCCCCn1c(CN(C)Cc2ccccc2)nc2c1c(=O)n(C)c(=O)n2C | inactive | – |
| CCCCCCCCN1C(=O)[C@H](CC(=O)NCc2cccc3ccccc23)C[C@@]2(C(=O)OC)CC(C)(C)CC=C12 | inconclusive [cytotoxic, single point] | – |
| CCOc1cc(CNCCSc2nnnn2C)cc(Br)c1OCc1ccccc1 | inconclusive [cytotoxic, single point] | – |
| CCOCCCNC(=O)c1cc(-c2ccc(Br)s2)nc2ccccc12 | inactive | – |
| CN(C)CCCN(C(=O)c1cccs1)c1nc(-c2ccccc2)cs1 | inconclusive [cytotoxic, single point] | – |
| COc1cc2nc(/C=C/c3cc(OC)c(OC)c(OC)c3)sc2cc1SC | inconclusive [cytotoxic, full curve] | – |
| NC(=O)N/N=C1\c2ccccc2-c2c(C(N)=O)cccc21 | – | inconclusive: -6.12% [cytotoxic] |
| CCOC(=O)N1CCN(C(=O)CSc2cc(C)nc3c(-c4ccccc4OC)c(C)nn23)CC1 | active: 10 µM | – |
| O=C1C(=O)N(c2nccs2)C(c2ccccc2F)/C1=C(\O)c1ccc2c(c1)OCCO2 (stereo not drawn) | inconclusive [cytotoxic, partial curve] | – |
| Fc1ccc(C2c3cccn3CCN2C(=S)Nc2cccc(Br)c2)cc1 (stereo not drawn) | inconclusive [cytotoxic, single point] | – |
| COc1ccc(C(=O)CSc2nc(-c3ccccn3)nc(C)c2Cl)cc1 | inconclusive [cytotoxic, single point] | – |
| CCN1C(=O)/C(=C/N(C(C)=O)c2ccccc2)N(c2ccccc2)C1=S | inconclusive [cytotoxic, single point] | – |
| Cc1ccc(NC(=O)c2cc(S(=O)(=O)NCCc3ccccc3)ccc2F)cc1Cl | active: 16.4 µM | – |
| Cn1ccc2c(/C=C/c3ccc(F)cc3)cc3c(c21)C1CCC3O1 (stereo not drawn) | inconclusive [cytotoxic, single point] | – |
| O=C(/C(=N\Nc1ccc([N+](=O)[O-])cc1)Sc1nnnn1-c1ccccc1)c1ccccc1 | inconclusive [cytotoxic, single point] | – |
| Cc1cccc(C)c1OCC(=O)OCC(=O)Nc1ccc(Cl)cn1 | inactive | – |
| Cc1ccc(-c2cc(C(=O)N/N=C/c3c(C)nn(-c4ccccc4)c3C)n[nH]2)s1 | active: 1.64 µM | – |
| O=C(Nc1cccc2cccnc12)c1ccc2sc([C@@H]3O[C@H](CO)[C@H](O)[C@H](O)[C@H]3O)nc2c1 | inconclusive [rising, single point] | – |
| O=C(CSc1nnc(SCc2ccc(Cl)cc2)s1)N/N=C/c1c(Cl)cccc1Cl | inconclusive [cytotoxic, single point] | – |
| c1ccc(C[C@H]2CNCCN2CCc2cccc3ccccc23)cc1 | inactive | – |
| CCCCN1C[C@H](C)[C@@H](CC(=O)NCc2ccccc2)C1=O | inactive | – |
| Cc1nccc(-c2cccc(N/N=C(\C#N)C(=O)c3ccccc3)c2)n1 | inconclusive [cytotoxic, single point] | – |
| CCc1cc(=O)oc2c(C)c(OCC(=O)NCCCn3ccnc3)ccc12 | inactive | – |
| CCN(CC)CCCNC(=O)CSc1c2c(nc3cc(Cl)ccc13)CCCC2 | active: 23.1 µM | – |
